The supplement of paper PMC3334620
Whole data set: some 33,000 sequences, median “E-score (-0.5 to 0.5)” near -0.054, cut for the highest 2% near 0.39. This is one part of the list.

Each sequence was assayed against Ylr278c (UniProt Q05854) (assay: PBM E-score (8-mer binding enrichment) (E-score (-0.5 to 0.5)); higher = stronger / more preferred TF binding; most listed sequences are background and not binding sites). Settings: protein concentration: 200 nM; construct: GST-DNA-binding domain.
Summary of the method: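 E-scores (a modified Wilcoxon-Mann-Whitney statistic) were assigned by the Universal PBM Analysis Suite to every ungapped eight-base word pooled with its reverse complement. The input came from universal all-10-mer Agilent arrays made double-stranded by primer extension and probed with GST-tagged yeast transcription factors at about 100-200 nM. Fluorescent anti-GST detected bound protein, and masliner normalised the scans.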

| Sequence | PBM E-score |
| --- | --- |
| GGGGTTAA | 0.0589 |
| CGGACGGA | 0.397 |
| AACCGGAT | 0.367 |
| ATGTTCCG | 0.429 |
| GATCATCC | 0.0203 |
| ACAATTAG | -0.148 |
| CCCGCACC | 0.188 |
| CGGATTGC | 0.285 |
| CACTTCAC | -0.0647 |
| AGCGCAAC | 0.139 |
| ATGTTCTG | -0.11 |
| CCATTCCG | 0.332 |
| TCAAACAA | -0.0998 |
| CTTTGAAC | -0.111 |
| AAGTCAAG | -0.255 |
| CGGTCGAA | 0.168 |
| GCATTAGC | -0.0544 |
| GGACCTCC | 0.251 |
| ATTCTCCC | 0.0768 |
| CAGTCTGA | -0.199 |
| GGGTACCA | -0.244 |
| ATCGCCTA | 0.084 |
| ACAGAGTA | -0.178 |
| GAGAAATA | 0.155 |
| AATAAGGC | -0.111 |

| Sequence | PBM E-score |
| --- | --- |
| ATCCAGAA | -0.122 |
| ATTAAGAA | -0.0604 |
| CAGTCAGA | -0.206 |
| CCGGGGGC | 0.271 |
| ACAGAGCT | -0.221 |
| CCGTATAA | 0.196 |
| ACGTTTTA | -0.206 |
| GACTATAC | -0.134 |
| TACCTTAA | -0.147 |
| ACAAATAG | 0.0001 |
| CACCCCAA | -0.0388 |
| CCCGTTTA | 0.14 |
| AAATCGTT | -0.154 |
| CCCTGCCA | -0.125 |
| CCAGGCAG | -0.161 |
| GGTATTGA | -0.0384 |
| GCCTTTAC | -0.0652 |
| AATACACT | -0.261 |
| GGTCTATA | -0.134 |
| GTTGGGCA | -0.127 |
| CTTGCCAC | -0.186 |
| AGTGCTTA | -0.229 |
| AGTGGGCC | -0.288 |
| GTGTAAAA | -0.0333 |
| CTCCTATC | -0.0262 |

| Sequence | PBM E-score |
| --- | --- |
| ATGCGGGA | 0.254 |
| ATTTTAAA | 0.0686 |
| AAGTAGGT | -0.099 |
| ACTGCAAG | -0.168 |
| CTGCCAGC | -0.214 |
| CCAGAGTA | 0.00877 |
| GGAGAGTA | 0.243 |
| CACTTATA | -0.097 |
| TCTTAGAA | 0.0122 |
| ACCATCGC | -0.073 |
| ACTTTTGA | 0.0107 |
| ACAATACG | 0.077 |
| CGACTTCA | -0.0229 |
| ACACACTG | -0.267 |
| AGGATTGG | -0.176 |
| CCCAACCG | -0.0967 |
| CACAAGTA | -0.0997 |
| AACCGCTC | -0.0374 |
| AGAGATCG | -0.0659 |
| AGAAGCAA | -0.0422 |
| AATCCACT | -0.0727 |
| GCCTCGCA | -0.158 |
| CATGTAAG | -0.0988 |
| CTAAGGCC | 0.00484 |
| CCGAGGAA | 0.315 |

| Sequence | PBM E-score |
| --- | --- |
| ACGTGTCT | -0.216 |
| ACGGTAGA | -0.0217 |
| AGACAACG | 0.0292 |
| CGGATGAG | 0.194 |
| AATTATAC | 0.251 |
| AAAAGAGA | -0.223 |
| CCTACACA | 0.0303 |
| ACCCATCG | 0.113 |
| TCAGCTGA | -0.145 |
| ACTTTGCG | -0.0125 |
| ATGAGCAG | -0.208 |
| ACCATCCG | 0.148 |
| ATGCCGGG | 0.336 |
| GTTGCTTA | -0.107 |
| AACTTTGC | -0.0101 |
| CGAGTTTA | 0.0666 |
| AACATCCG | 0.385 |
| GCGTGTTA | -0.258 |
| CCACTTTA | -0.0297 |
| AAACCGAA | 0.0446 |
| CCAAATTA | -0.141 |
| CCCTAACG | -0.138 |
| CACTAAGG | -0.0893 |
| ACACATAT | -0.177 |
| CTGAGGTA | 0.00191 |

| Sequence | PBM E-score |
| --- | --- |
| CAATGACC | -0.206 |
| GCGTGATA | -0.0659 |
| AAAGTGCC | 0.021 |
| CATTGTTC | 0.0678 |
| GCTATTGA | -0.0423 |
| AATAGCCG | 0.232 |
| ACTTCATA | -0.116 |
| ACAGTGCA | 0.017 |
| CACGGATA | 0.196 |
| CGGACGAA | 0.332 |
| ACGGGCCC | 0.142 |
| GGACTTGA | 0.179 |
| ATTCTTGG | 0.117 |
| ATTAAACC | 0.0693 |
| AGACCCCT | -0.271 |
| ATCAATGA | -0.0268 |
| GGCCCACC | 0.0651 |
| ACGTACTA | -0.212 |
| CGATTCTC | -0.00605 |
| GAGGGGAA | 0.0991 |
| GACCCGCA | -0.00573 |
| CCTACTCC | 0.14 |
| GCGCTCCA | 0.0139 |
| ATCCTCCG | 0.431 |
| GACAATAA | 0.03 |

| Sequence | PBM E-score |
| --- | --- |
| CTAGTAAC | -0.167 |
| CGACACTC | 0.0756 |
| ATCGTCGC | -0.165 |
| CAGCGCGG | 0.213 |
| CACCGGTG | 0.306 |
| CGACGGAG | 0.421 |
| ATTGATGG | -0.069 |
| CCTACGAA | -0.0211 |
| GAAGGTCA | -0.119 |
| CCGTTCAC | -0.0424 |
| ACCTCCTC | -0.0564 |
| CGCATCGC | -0.0943 |
| GAATCTCC | 0.368 |
| CCCTTCTC | -0.0903 |
| CTTGTGTA | -0.127 |
| CCGAAAGA | 0.338 |
| AATATAGG | 0.0354 |
| TCGAACAA | -0.0943 |
| CGTGGGAC | -0.0297 |
| CTGGCTCA | -0.136 |
| ACATCTGG | 0.0256 |
| GAAGGAGC | -0.314 |
| CTCCACGA | -0.0757 |
| GAATTGAC | 0.0975 |
| ATGCCTTG | -0.0703 |

| Sequence | PBM E-score |
| --- | --- |
| CCAGGGCG | 0.0486 |
| AAAGAGCG | 0.0481 |
| AACAAGCC | -0.121 |
| GCCCCACA | -0.139 |
| GCGGGTCC | 0.177 |
| GCTATTCC | 0.173 |
| CGTCCTTA | -0.206 |
| ATCTATAG | -0.109 |
| CTGATCCA | -0.127 |
| ACATCAAG | 0.00648 |
| CGCGCTCC | 0.347 |
| GAGTGCTA | -0.00265 |
| AACTCCGG | 0.497 |
| AGTTTGTC | -0.0538 |
| ATCGCTAC | -0.0939 |
| ACGGTATG | -0.1 |
| AGTTACCG | 0.187 |
| TGAACCAA | -0.22 |
| AAATCAAA | -0.0357 |
| CATATTCG | 0.151 |
| GCGTATAA | 0.072 |
| GTAGACAA | -0.0795 |
